Among the data in PMC6704105 are binding values, retold here.

Sequences of proteins named here, by UniProt entry; tags and fusion partners are left off.
UniProt P35222: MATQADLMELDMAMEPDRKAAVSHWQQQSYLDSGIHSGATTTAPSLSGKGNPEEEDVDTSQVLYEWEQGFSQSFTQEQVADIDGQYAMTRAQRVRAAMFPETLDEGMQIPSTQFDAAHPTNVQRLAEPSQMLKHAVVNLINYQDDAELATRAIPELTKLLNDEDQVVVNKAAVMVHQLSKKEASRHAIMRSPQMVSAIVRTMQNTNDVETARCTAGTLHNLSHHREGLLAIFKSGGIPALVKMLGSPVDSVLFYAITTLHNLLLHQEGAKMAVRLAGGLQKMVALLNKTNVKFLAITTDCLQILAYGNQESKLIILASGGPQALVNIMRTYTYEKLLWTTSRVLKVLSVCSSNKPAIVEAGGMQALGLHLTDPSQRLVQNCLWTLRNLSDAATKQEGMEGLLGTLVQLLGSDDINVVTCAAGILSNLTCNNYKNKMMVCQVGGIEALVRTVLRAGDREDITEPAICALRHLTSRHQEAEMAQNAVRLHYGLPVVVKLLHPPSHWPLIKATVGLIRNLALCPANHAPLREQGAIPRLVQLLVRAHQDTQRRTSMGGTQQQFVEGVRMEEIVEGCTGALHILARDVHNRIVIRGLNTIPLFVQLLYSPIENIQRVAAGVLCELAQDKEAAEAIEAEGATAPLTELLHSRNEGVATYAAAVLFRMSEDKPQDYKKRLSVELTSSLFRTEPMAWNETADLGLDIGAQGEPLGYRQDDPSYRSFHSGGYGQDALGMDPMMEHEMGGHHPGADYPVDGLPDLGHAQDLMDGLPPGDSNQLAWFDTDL
UniProt O14744: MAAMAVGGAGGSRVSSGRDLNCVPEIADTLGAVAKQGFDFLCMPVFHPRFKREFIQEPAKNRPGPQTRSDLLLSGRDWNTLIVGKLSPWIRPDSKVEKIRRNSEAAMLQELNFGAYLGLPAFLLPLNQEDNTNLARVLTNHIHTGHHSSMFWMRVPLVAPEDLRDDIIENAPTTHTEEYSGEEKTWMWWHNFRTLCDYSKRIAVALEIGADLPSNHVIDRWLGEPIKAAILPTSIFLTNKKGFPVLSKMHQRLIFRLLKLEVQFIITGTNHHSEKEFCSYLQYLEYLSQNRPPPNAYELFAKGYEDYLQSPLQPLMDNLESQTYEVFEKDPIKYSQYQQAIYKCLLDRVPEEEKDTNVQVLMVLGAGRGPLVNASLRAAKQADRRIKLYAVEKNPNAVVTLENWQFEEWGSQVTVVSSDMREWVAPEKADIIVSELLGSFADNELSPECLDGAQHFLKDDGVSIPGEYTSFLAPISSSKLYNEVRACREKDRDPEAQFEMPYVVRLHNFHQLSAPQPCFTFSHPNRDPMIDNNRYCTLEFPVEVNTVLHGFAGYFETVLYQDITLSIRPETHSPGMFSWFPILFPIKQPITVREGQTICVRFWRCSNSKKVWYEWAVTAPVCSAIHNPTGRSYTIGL
UniProt P05412: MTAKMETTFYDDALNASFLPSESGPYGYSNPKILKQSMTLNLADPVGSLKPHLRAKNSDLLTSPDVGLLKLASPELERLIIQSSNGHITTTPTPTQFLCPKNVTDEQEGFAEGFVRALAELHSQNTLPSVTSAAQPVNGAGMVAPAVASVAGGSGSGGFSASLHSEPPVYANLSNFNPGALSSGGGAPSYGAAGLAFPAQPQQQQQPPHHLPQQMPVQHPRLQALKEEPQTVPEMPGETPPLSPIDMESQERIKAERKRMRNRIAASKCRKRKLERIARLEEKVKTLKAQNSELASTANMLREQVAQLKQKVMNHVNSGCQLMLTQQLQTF
UniProt O15379: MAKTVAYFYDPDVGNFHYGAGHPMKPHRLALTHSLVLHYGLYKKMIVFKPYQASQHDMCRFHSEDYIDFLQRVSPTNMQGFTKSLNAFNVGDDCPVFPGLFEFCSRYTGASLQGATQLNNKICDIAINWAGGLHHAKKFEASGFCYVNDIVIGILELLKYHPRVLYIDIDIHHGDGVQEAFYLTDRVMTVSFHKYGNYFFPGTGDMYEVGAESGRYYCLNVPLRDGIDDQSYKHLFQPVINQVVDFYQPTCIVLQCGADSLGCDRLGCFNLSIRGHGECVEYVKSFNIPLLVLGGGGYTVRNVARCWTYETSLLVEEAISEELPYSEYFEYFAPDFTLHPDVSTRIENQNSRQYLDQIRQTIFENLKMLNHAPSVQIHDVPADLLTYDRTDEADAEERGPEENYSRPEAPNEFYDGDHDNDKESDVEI

Experiment [1] addresses T1, Jun Dimerization Protein 2 (JDP2) (human (endogenous in 293FT and the other indicated cells)) (UniProt Q8WYK2).
T1 sequence: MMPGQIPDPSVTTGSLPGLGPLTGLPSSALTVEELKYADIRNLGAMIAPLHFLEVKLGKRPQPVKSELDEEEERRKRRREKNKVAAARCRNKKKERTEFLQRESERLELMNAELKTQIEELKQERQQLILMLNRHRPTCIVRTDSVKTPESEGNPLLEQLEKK
The experiment in a line: co-IP; IP with antibodies to β-catenin, JDP2, PRMT5 or ATM from the indicated cells treated with CPT (10 μM, 1 h), compared with untreated cells in several panels; also siRNA to β-catenin or PRMT5, ATM inhibitor KU55933 (10 μM, 1 h) pretreatment, transfected fragments, mutants or Flag-β-catenin.

The target of experiment [2] is T2, Human recombinant His-JDP2 protein (human) (UniProt Q8WYK2).
T2 sequence: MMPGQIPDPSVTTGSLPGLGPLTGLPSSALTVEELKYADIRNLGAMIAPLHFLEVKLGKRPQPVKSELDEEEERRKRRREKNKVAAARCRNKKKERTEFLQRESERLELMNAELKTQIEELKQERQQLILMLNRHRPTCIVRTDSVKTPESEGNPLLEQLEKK
The experiment in a line: co-IP; in vitro binding assay: Flag antibody-immunoprecipitated lysates of CPT-treated cells transfected with Flag-β-catenin, added to recombinant His-JDP2 and recombinant histone; anti-His antibody; only the target purified.

Experiment [3] deals with T1, Jun Dimerization Protein 2 (JDP2) (human (endogenous in 293FT and the other indicated cells)). Kind of experiment: co-IP; IP with antibodies to β-catenin, JDP2, PRMT5 or ATM from the indicated cells treated with CPT (10 μM, 1 h), compared with untreated cells in several panels; also siRNA to β-catenin or PRMT5, ATM inhibitor KU55933 (10 μM, 1 h) pretreatment, transfected fragments, mutants or Flag-β-catenin. This is another data set of the same source.

Experiment [4] concerns the target β-catenin (human (endogenous in 293FT, OVCAR3, MCF-7, A549)) (UniProt P35222). The experiment in a line: co-IP; untreated cells (no CPT).
The target of experiment [5] is arginine methyltransferase 5 (PRMT5) (human (endogenous in 293FT and the other indicated cells)) (UniProt O14744). Kind of experiment: co-IP; IP with antibodies to β-catenin, JDP2, PRMT5 or ATM from the indicated cells treated with CPT (10 μM, 1 h), compared with untreated cells in several panels; also siRNA to β-catenin or PRMT5, ATM inhibitor KU55933 (10 μM, 1 h) pretreatment, transfected fragments, mutants or Flag-β-catenin.

Experiment [6] concerns the target β-catenin (human (endogenous in 293FT, OVCAR3, MCF-7, A549)) (UniProt P35222). The experiment is described as above.
Experiment [7] has the same target. The experiment in a line: far-Western, overlay or dot blot; proteins immunoprecipitated by anti-β-catenin antibody separated by SDS-PAGE and transferred to PVDF; recombinant His-JDP2 at 5 μg/ml, 4 °C, 18 h; detected with anti-His, reblotted with anti-β-catenin; only the binder purified.
Experiment [8] deals with arginine methyltransferase 5 (PRMT5) (human (endogenous in 293FT and the other indicated cells)) (UniProt O14744). Kind of experiment: co-IP; untreated cells (no CPT).

Where two headings read alike, the source gives them in different places. No constants are given. Whether binding was seen depends on the method and setting. For some assays here: In cells and extracts the contact can be indirect. Some results given as binding are weak or reduced against the parent protein; the word gives no strength. For some assays here: Where a sequence is shown, tags or fusion partners need not be part of it.

Take “Flag-tagged β-catenin (from UniProt P35222 1-781)”: the binding entry in experiment [1] and in experiment [2] was “binds” throughout.

In the case of c-Jun (from UniProt P05412 1-331), in experiment [1], the binding entry was “binds”.

As to “HDAC3 (from UniProt O15379 1-428) (enzyme)”, the binding result in experiment [1] is recorded as “binds”.

B1: ATF3 (protein, UniProt P18847 1-181)
chain: MMLQHPGQVSASEVSASAIVPCLSPPGSLVFEDFANLTPFVKEELRFAIQNKHLCHRMSSALESVTVSDRPLGVSITKAEVAPEEDERKKRRRERNKIAAAKCRNKKKEKTECLQKESEKLESVNAELKAQIEELKNEKQHLIYMLNLHRPTCIVRAQNGRTPEDERNLFIQQIKEGTLQS
As to B1, the binding entry in experiment [3] was “binds”.

B2: Jun Dimerization Protein 2 (JDP2) (protein, UniProt Q8WYK2 1-163)
chain: MMPGQIPDPSVTTGSLPGLGPLTGLPSSALTVEELKYADIRNLGAMIAPLHFLEVKLGKRPQPVKSELDEEEERRKRRREKNKVAAARCRNKKKERTEFLQRESERLELMNAELKTQIEELKQERQQLILMLNRHRPTCIVRTDSVKTPESEGNPLLEQLEKK
On to B2, for which the binding result is “no binding (condition: untreated cells (without CPT))” in experiment [4], “binds” in experiment [5] and “binds” in experiment [6].

B3: Human recombinant His-JDP2 protein (protein, UniProt Q8WYK2 1-163)
chain: MMPGQIPDPSVTTGSLPGLGPLTGLPSSALTVEELKYADIRNLGAMIAPLHFLEVKLGKRPQPVKSELDEEEERRKRRREKNKVAAARCRNKKKERTEFLQRESERLELMNAELKTQIEELKQERQQLILMLNRHRPTCIVRTDSVKTPESEGNPLLEQLEKK
As for B3, in experiment [7], the binding entry is “binds”.

B4: phosphomimetic JDP2/T116D mutant (protein, UniProt Q8WYK2 1-163)
chain: MMPGQIPDPSVTTGSLPGLGPLTGLPSSALTVEELKYADIRNLGAMIAPLHFLEVKLGKRPQPVKSELDEEEERRKRRREKNKVAAARCRNKKKERTEFLQRESERLELMNAELKDQIEELKQERQQLILMLNRHRPTCIVRTDSVKTPESEGNPLLEQLEKK
B4: the binding entry in experiment [8] was “binds”.

B5: JDP2/T116A mutant (protein, UniProt Q8WYK2 1-163)
chain: MMPGQIPDPSVTTGSLPGLGPLTGLPSSALTVEELKYADIRNLGAMIAPLHFLEVKLGKRPQPVKSELDEEEERRKRRREKNKVAAARCRNKKKERTEFLQRESERLELMNAELKAQIEELKQERQQLILMLNRHRPTCIVRTDSVKTPESEGNPLLEQLEKK
Consider B5, for which the binding entry in experiment [5] was “no binding”.
